Reference: PubChem BioAssay AID1768 (National Center for Advancing Translational Sciences (NCATS), 2009)
About 620 (0.23%) of roughly 270,000 compounds were called active. Inconclusive results, whose numbers are uncertain, are shown with a selection of clear calls. The call rests on the fitted dose curve; in most records, active means well fitted inhibition curve with a large enough effect in the polarisation, with a control signal flat (not every such curve was filed as active); inconclusive means small, poorly fitted or top-dose-only effect, or effect the other way, or a change in a side signal; inactive means no such curve, though single readings can be large or run the other way; the % refers to the polarisation. Potencies of inconclusive entries are doubtful fits and often do not repeat. “Side channel” marks fits to a control or component signal instead of the main read-out.

The compounds below were run against Menin (Homo sapiens) (UniProt O00255) (assay: qHTS Assay for Inhibitors Targeting the Menin-MLL Interaction in MLL Related Leukemias: Competition With Texas Red Labeled MLL-derived Mutant Peptide). Conditions: fluorescence polarization; FP activity change, negative = inhibition: at 61.6 µM (top of the series).
Potency means the concentration at half of the fitted maximal effect; tags describe the fitted curve by direction and shape or compound fluorescence and quenching.
Wherever FP activity change, negative = inhibition is given: % of control where 0% means no effect.

Chain of UniProt O00255 (O00255 whole entry, looked up): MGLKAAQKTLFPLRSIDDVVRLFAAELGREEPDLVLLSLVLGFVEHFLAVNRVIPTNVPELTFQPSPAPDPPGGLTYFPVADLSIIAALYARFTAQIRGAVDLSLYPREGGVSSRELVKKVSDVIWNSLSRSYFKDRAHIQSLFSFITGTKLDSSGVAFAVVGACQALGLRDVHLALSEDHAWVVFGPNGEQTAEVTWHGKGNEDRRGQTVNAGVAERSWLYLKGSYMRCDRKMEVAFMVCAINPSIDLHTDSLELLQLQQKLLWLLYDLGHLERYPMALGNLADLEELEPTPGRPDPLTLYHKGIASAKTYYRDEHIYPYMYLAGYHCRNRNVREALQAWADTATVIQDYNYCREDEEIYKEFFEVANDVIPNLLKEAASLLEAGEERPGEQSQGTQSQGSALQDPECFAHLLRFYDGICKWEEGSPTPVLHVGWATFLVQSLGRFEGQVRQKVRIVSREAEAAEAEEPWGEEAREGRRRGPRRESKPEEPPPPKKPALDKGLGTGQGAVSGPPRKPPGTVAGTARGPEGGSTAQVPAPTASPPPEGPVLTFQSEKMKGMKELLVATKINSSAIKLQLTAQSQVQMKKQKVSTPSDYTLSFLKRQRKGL

SMILES | Potency | FP activity change, negative = inhibition
Cc1ccc(NC(=O)C(OC(=O)c2ccc(O)cc2)c2ccccc2)cc1Cl (stereo unspecified) | inconclusive: 8.91 µM [quencher, side channel, partial curve] | 
Cc1ccc(-n2c(=S)sc3c(=O)n(-c4ccc(F)cc4)c(SCC(=O)O)nc32)cc1C | inconclusive: 39.8 µM [quencher, single point] | 
Cc1ccc(O)c(C2=Nc3ccccc3N=C(c3cccc([N+](=O)[O-])c3)C2)c1 | inconclusive: 14.1 µM [quencher, side channel, partial curve] | 
C/C(CC(C)(C)C1CCCCC1)=N\NC(N)=S | inconclusive: 39.8 µM [fluorescent, side channel, single point] | 
CCOC(=O)COc1ccc2c(c1)c(C(C)=O)c(C)n2-c1ccc(OC)cc1 | inconclusive: 11.2 µM [fluorescent, side channel, partial curve] | 
CCN(CC)c1ccc(-c2c(C#N)c(N)nc(OC)c2C#N)cc1 | inconclusive: 28.2 µM [quencher, side channel, partial curve] | 
Brc1ccc(-c2noc(COc3ccc4ccccc4c3)n2)o1 | inconclusive: 10 µM [quencher, side channel, partial curve] | 
O=S(=O)(c1ccc2ccccc2c1)N1CCN(C(=S)Nc2ccc(F)cc2)CC1 | inconclusive: 35.5 µM [inhibitor, single point] | 
COCCN(Cc1cc2cc(C)ccc2n2nnnc12)C(=S)Nc1cccc(C)c1 | inconclusive: 28.2 µM [fluorescent, side channel, single point] | 
Oc1cccc2ccc(/C=C/c3ccccc3Br)nc12 | inconclusive: 28.2 µM [quencher, side channel, partial curve] | 
COc1cc(C(=O)Nc2ccc3c(c2)C(=O)N(CCC(=O)O)C3=O)cc(OC)c1OC |  | inactive: 3.98%
CC(C)=CC(=O)Nc1nnc(-c2ccc(F)cc2)s1 | inconclusive: 7.08 µM [inhibitor, partial curve] | 
CCOC(=O)N1CCc2c(sc(NC(=O)CN3CCN(C)CC3)c2C(=O)Nc2ccccc2)C1 | inconclusive: 5.01 µM [inhibitor, full curve, poor fit] | 
COc1ccc(CNc2cc(-c3ccccc3Cl)ncn2)c(OC)c1 | inconclusive: 39.8 µM [inhibitor, single point] | 
O=C(O)c1cc(N(Cc2ccccc2O)Cc2ccccc2O)ccc1O | inconclusive: 20 µM [quencher, side channel, partial curve] | 
CC(C)Cc1cc(CN2CCCC(CO)(Cc3cccc(Cl)c3)C2)[nH]n1 (stereo unspecified) | inconclusive: 12.6 µM [fluorescent, side channel, partial curve] | 
